# Test results published in PMC12136788.
# This is one part of the list.
# T1: UNK ZnF1-3 (human, UniProt Q9C0B0 31-174)
# T1 sequence: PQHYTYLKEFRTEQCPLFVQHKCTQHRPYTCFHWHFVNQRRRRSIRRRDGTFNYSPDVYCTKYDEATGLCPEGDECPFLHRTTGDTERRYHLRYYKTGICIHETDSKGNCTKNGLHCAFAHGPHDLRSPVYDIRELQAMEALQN
# B1: chr5:145543945:145543946:-_ENSG00000133706_ENST00000545646|hu_hu|hu_hu_hu_mus_True|48_108 (ssRNA)
# RNA: GGGAGUUCUACAGUCCGACGAUCCUGAAUAGCCAGUGGUGGGAAAUAAUCAAGCCAGUGCUCUGCUUCAGAAAACUUCACUAUGUCUUCAUCAGACAGCCCAAGGGAUUUCAUAAUGUCCCACUGGUACUUAGAAGAUCCUGCCAACAGAGGAUUGAGCAUCA
# B2: chr14:66974463:66974464:+_ENSMUSG00000022044_ENSMUST00000074523|mus_hu|mus_mus_mus_hu_False|1_38 (ssRNA)
# RNA: GGGAGUUCUACAGUCCGACGAUCUUGUAGGACGACUUAUUCAGGGGAUCGGCCAGGAAGCAGGAGCAGAACAAGGACACCAGCGGGAGCUCCUUCAUCUUCUCCUUGUAGGCAGCAAGGGUCAUGUUUCUGGGAUCCUGGUGGCAACAGAGGAUUGAGCAUCA
# B3: chr9:79619141:79619142:-_ENSMUSG00000032328_ENSMUST00000034878|mus_hu|FALSE|FALSE (ssRNA)
# RNA: GGGAGUUCUACAGUCCGACGAUCAAAUUAAAUGGUAAUGUCAGCUGUAUUACUACUGUUUCUAUAUUUAUGAUUAAUUACUAGCAGUACAACUCCCAGAAGGAAGGAGAUGGAUCCAACAGCGAUGUAAGCAAUCCCCAAAAACAACAGAGGAUUGAGCAUCA
# B4: chr1:93819538:93819539:+_ENSG00000117505_ENST00000370267|hu_hu|FALSE|FALSE (ssRNA)
# RNA: GGGAGUUCUACAGUCCGACGAUCUUCUUCAGGAAUGCCAAGGUUUUCCAAACGAGAACUGGCCUUUCUUCUUUUUAAUGCUACUGUUUUACACUCUUGCAAGACUUCUUUUACUUCACUGAUGUAAGAGCCAAAUCCCAAACUCAACAGAGGAUUGAGCAUCA
# B5: chr18:77733610:77733611:-_ENSG00000141759_ENST00000592957|hu_hu|FALSE|FALSE (ssRNA)
# RNA: GGGAGUUCUACAGUCCGACGAUCUGUUAUCAAUUCCAUCUCAGAGGUGCUCCAGCCCUGGAGCUUCCUGUAUUUUCCAAAGGCUUUAAAUAGCUUAAAACGUUUCCAUACAAAAAGGGCUCCACGACAUUUAUCCGCGCAGACCAACAGAGGAUUGAGCAUCA
# B6: chr1:46159212:46159213:+_ENSG00000159596_ENST00000372025|hu_mus|hu_hu_hu_mus_True|8_108 (ssRNA)
# RNA: GGGAGUUCUACAGUCCGACGAUCUCUGAUCCCACCCAAGAAAGCUAGGAAACCGGCUCCAUAAGCCAUCUGAGUGAAAGCUAGGACGGGGAUAUAAGACUUUGUUAUUACCAUGAGAAGUGGGGGAGCAACGAAGGGGAUUAACAACAGAGGAUUGAGCAUCA
# B7: chr6:86246577:86246578:-_ENSG00000135317_ENST00000369627|hu_mus|motif|central (ssRNA)
# RNA: GGGAGUUCUACAGUCCGACGAUCUAAUUAGGCAGCACAGCUCCCUCCAUUGUCGUACUCUUGAAUACGCCUUUAAUUUUGCGGCCGGUUCUGCUGAUUCCAAACGAUUCUCCUCUUUUUUGUGUGCUUCUAAAUAUUAAACAACAACAGAGGAUUGAGCAUCA
# B8: chr11:18503389:18503390:-_ENSG00000074319_ENST00000251968|hu_hu|hu_hu_hu_mus_True|18_38 (ssRNA)
# RNA: GGGAGUUCUACAGUCCGACGAUCAUUUUCCAUUUUCUCCAGAGCAGAACUUAGUUCUUCAUCCUUCUUUUUCAAAAGUUCUAUGUUUUUAUCAACUUCGGCUACUUCUUGAUCUAAACGGGUAACCAUCUCUUCCAGUUUCUGCAACAGAGGAUUGAGCAUCA
# B9: chr3:154749246:154749247:-_ENSMUSG00000053870_ENSMUST00000066568|mus_mus|motif|central (ssRNA)
# RNA: GGGAGUUCUACAGUCCGACGAUCGUUUUGUUACGUGUUGUCUCACUAUGAGAAGUUGAGCAAUACAAUCCUCCAUAUCACCGGGAAUUUUAUUGGUCCAAAUUUCAAAAGAAGAUAGAAAAGCUUUAAAGAUAUGUUAUGUUUCAACAGAGGAUUGAGCAUCA
# B10: chr4:148551591:148551592:-_ENSMUSG00000063077_ENSMUST00000060537|mus_hu|mus_mus_mus_hu_False|48_58 (ssRNA)
# RNA: GGGAGUUCUACAGUCCGACGAUCACCUGACAAAAUUAAAUAUCCCUGUAAAUUAGACAAUAAGCAGCAGGCAACAAAGUCUAUGCUUUGAAAUAUGUGCCAGGAAAAGUCAUCUUGUUUUUAGAUCUCAAGAGACAGUUCACACAACAGAGGAUUGAGCAUCA
# B11: chr7:89982137:89982138:+_ENSG00000105793_ENST00000417207|hu_mus|FALSE|FALSE (ssRNA)
# RNA: GGGAGUUCUACAGUCCGACGAUCGGGUAACCCAUUCCACCGCUUCCUCCCUUGGUGAAGAUUCUCAGGUUAUCAAUGAAAUUUCCAUACUUUCUCAACAAAGCGCAACCGCAGCGCACCAUGAGCUCCAAGGGGCAGGACUCCCAACAGAGGAUUGAGCAUCA
# B12: chr16:20502619:20502620:+_ENSMUSG00000003235_ENSMUST00000003320|mus_mus|motif|central (ssRNA)
# RNA: GGGAGUUCUACAGUCCGACGAUCGUCAGCACAAACAGCUGAGUACAUGUGUAGGUUGGAGACCCGGGCACCAUAUUCCCGGGUUGUCACAUGCAAGUGAAUCUGGUUUCCUAGGACCUCCUCAUUCAUUAAUAUGCCUCGUACCAACAGAGGAUUGAGCAUCA
# B13: chr12:15822463:15822464:-_ENSMUSG00000020601_ENSMUST00000020922|mus_mus|FALSE|FALSE (ssRNA)
# RNA: GGGAGUUCUACAGUCCGACGAUCAAAAGGAUCAAGAAGGGAGGGGACCCGUCUGGGGCUCCGUGGAGGAAGAGUUAAGAACUAGCCCCCAGAUGGGCGCUGCAGGGCUGGUCCCCGGCUGCGAGCCCCGCUCCCGGGGGUGCUCAACAGAGGAUUGAGCAUCA
# B14: chr11:77378495:77378496:-_ENSG00000048649_ENST00000308488|hu_hu|FALSE|FALSE (ssRNA)
# RNA: GGGAGUUCUACAGUCCGACGAUCUGAAUACUCGUCUGUGCUUCGGCCCCGCUUUCGAACUGACCGCUUUGAUUCUUUAGCUAGCUCAUCAUCUUCAGAGUUCUUGGACAAAUAGCUCUCUUCACUCUCUGAGCUGGAAAGUCUCAACAGAGGAUUGAGCAUCA
# Molecular target: T1, UNK ZnF1-3
# Test: nsRBNS (natural sequence RNA bind-n-seq); RBNS binding buffer (assumed for nsRBNS): 25 mM Tris pH 7.5, 150 mM KCl, 3 mM MgCl2, 0.01% Triton X-100, 500 ug/ml BSA, 20 U/ml SUPERase-In, 4 C; UNK is unkempt and MSI1 is Musashi-1; names of the RNAs are library labels; protein concentration not given here; high values mean tight binding
row,Binder,binding signal [enrichment R]
1,B1,1.04
2,B2,1.61
3,B3,1.4
4,B4,0.484
5,B5,0.969
6,B6,1.44
7,B7,0.782
8,B8,0.437
9,B9,2.78
10,B10,1.09
11,B11,1.29
12,B12,1.2
13,B13,0.946
14,B14,0.535
